Experimental data taken from PubChem BioAssay AID624417 (National Center for Advancing Translational Sciences (NCATS), 2012).
Out of some 410,000 compounds screened, about 6,400 (1.6%) were called active. Inconclusive results, whose numbers are uncertain, are shown with a selection of clear calls. Calls follow the shape of the dose curve; as a rule, active = well fitted inhibition curve with a large enough effect; inconclusive = small, poorly fitted or top-dose-only effect; inactive = no such curve, though single readings can be large or run the other way. Potencies of inconclusive entries are left out as doubtful fits.

These compounds were tested against Glucagon-like peptide 1 receptor (Homo sapiens) (UniProt P43220) (assay: qHTS of GLP-1 Receptor Inverse Agonists (Inhibition Mode)). Conditions: HEK293 GLP-1R CRE-luciferase, luminescence, 24 h, GLP-1R form is constitutively active; activity change, negative = inhibition: at 38.3 µM (top of the series) unless noted.
Summary of the method: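 HEK293 cells stably co-expressing a cAMP-responsive luciferase reporter and constitutively active GLP-1R were seeded, incubated 12 h, then exposed to compounds for 24 h at 37 C. Luminescence was read 12 min after detection reagent; inverse agonists lower signal.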
% is scaled to controls: 0 for no effect and ±100 for the full control effect; potency is read from the fitted curve at half-maximal effect; tags tell the direction and shape of the fitted curve.
Also: nearly all actives have a fitted effect of over 55% in size.

Chain of UniProt P43220 (P43220 whole entry, looked up): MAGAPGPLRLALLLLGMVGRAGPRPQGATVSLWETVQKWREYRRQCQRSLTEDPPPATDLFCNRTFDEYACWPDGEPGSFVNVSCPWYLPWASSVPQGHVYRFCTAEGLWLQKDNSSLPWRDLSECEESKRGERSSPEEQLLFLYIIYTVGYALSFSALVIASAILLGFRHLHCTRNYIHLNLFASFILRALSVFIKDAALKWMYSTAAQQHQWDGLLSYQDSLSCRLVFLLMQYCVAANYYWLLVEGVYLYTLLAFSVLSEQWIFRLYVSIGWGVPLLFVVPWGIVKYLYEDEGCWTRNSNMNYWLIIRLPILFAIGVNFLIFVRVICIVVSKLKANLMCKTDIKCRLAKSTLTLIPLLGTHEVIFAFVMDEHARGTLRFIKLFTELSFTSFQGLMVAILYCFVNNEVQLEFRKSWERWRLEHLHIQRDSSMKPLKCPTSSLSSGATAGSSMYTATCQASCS

Row | Compound | Potency | activity change, negative = inhibition
1 | C=C(CN(C)C)C(=O)c1cc(OC)c(OC)cc1OC | inconclusive [inhibitor, single point] | –
2 | CCCC(O)(CCC)C(=O)NN(C(=O)CCl)c1cccc(C)c1 | inconclusive [inhibitor, single point] | –
3 | CCOc1ccc(NC(=O)CSc2nnc(Cc3cccn3C)n2-c2ccc(F)cc2)cc1 | inconclusive [inhibitor, single point] | –
4 | Cc1ccc(NC(=S)NCCSc2ccc(Cl)cc2)c(C)c1 | active: 10 µM | –
5 | O=C(Nc1ccc(F)cc1)OCCN1CCN(Cc2ccccc2)CCC1=O | inconclusive [inhibitor, partial curve, poor fit] | –
6 | Cc1ccc2[nH]c(=O)c(CN(CC3COCCO3)C(=O)Nc3ccccc3F)cc2c1 (stereo not drawn) | inconclusive [inhibitor, single point] | –
7 | Cc1ccccc1-c1noc(-c2cc(C(C)C)[nH]n2)n1 | inconclusive [inhibitor, single point] | –
8 | CN(C)S(=O)(=O)c1ccc(NC(=O)Cc2ccc(S(=O)(=O)N3CCOCC3)s2)cc1 | – | inactive: 7.47%
9 | O=C(CN1CCN(Cc2ccccc2)CC1)Nc1cccc(Br)c1 | inconclusive [inhibitor, partial curve, poor fit] | –
10 | O=C1NC(=Nc2ccc(Cl)cc2)SC1Cc1cc(Cl)ccc1Cl (stereo not drawn) | inconclusive [inhibitor, partial curve, poor fit] | –
11 | Cc1ccc(NS(=O)(=O)c2cc(C(=O)Nc3cccc(N(C)S(C)(=O)=O)c3)ccc2C)c(C)c1 | inconclusive [inhibitor, single point] | –
12 | CCOC(=O)c1ccc(NC(=O)c2ccccc2C)cc1 | inconclusive [inhibitor, single point] | –
13 | Cc1ccc(S(=O)(=O)N2C[C@H]3n4c(=O)ccc(=O)n4C[C@H](OC(=O)Nc4c(C)noc4C)[C@@]3(O)C2)cc1 | – | inactive: -2.6%
14 | Cc1cc2ccccn2c1C(=O)c1ccccc1Br | inconclusive [inhibitor, partial curve, poor fit] | –
15 | O=C(NCCCN1CCOCC1)c1ccc(Sc2ccc(Br)cc2)c([N+](=O)[O-])c1 | – | inactive: -61.9%
16 | COC(=O)c1cccc(NC(=O)c2ccc3c(c2)C(=O)N(C(C)(C)C)C3=O)c1 | inconclusive [inhibitor, full curve, poor fit] | –
17 | O=C(O)C1CSC(c2ccccc2Cl)N1C(=O)c1ccc(Cl)cc1 (stereo not drawn) | inconclusive [inhibitor, partial curve, poor fit] | –
18 | CC1CN(C(=O)CCc2cc(C(C)(C)C)c(O)c(C(C)(C)C)c2)CC(C)O1 (stereo not drawn) | inconclusive [inhibitor, single point] | –
19 | Cc1ccc(C(=O)c2oc3ccccc3c2NC(=O)COc2ccc(C(C)(C)C)cc2)cc1 | – | inactive: 1.32%
20 | Cc1ccc(SCCC(=O)NCCSCc2ccco2)cc1 | inconclusive [inhibitor, single point] | –
21 | CC(C)C(=O)c1cc2c(cc1NC(=O)c1ccccc1F)OCCO2 | inconclusive [inhibitor, partial curve, poor fit] | –

Row | Compound | Potency | activity change, negative = inhibition
22 | O=C(CSc1nnc(C2CC2)n1Cc1ccccc1)c1cc2ccccc2o1 | inconclusive [inhibitor, full curve, poor fit] | –
23 | Cc1ccc(C)c(NS(=O)(=O)c2ccccc2C)c1 | inconclusive [inhibitor, single point] | –
24 | COc1ccc2c(c1)CCCN2S(=O)(=O)c1ccc(Cl)cc1 | inconclusive [inhibitor, single point] | –
25 | Cc1ccc(C(=O)OCn2ncc(Cl)c(Cl)c2=O)cc1 | inconclusive [inhibitor, single point] | –
26 | Cc1cccc(-n2ncc(C(=O)Nc3ccc4c(c3)OCO4)c2C2CCN(C(=O)OC(C)(C)C)CC2)c1 | inconclusive [inhibitor, single point] | –
27 | COc1ccc(Cl)cc1NC(=O)c1c(NCc2cccs2)sc2c1CCCC2 | – | inactive: -1.16%
28 | Cc1cc(C)nc(NC(=S)Nc2cccc(Cl)c2Cl)c1 | inconclusive [inhibitor, full curve, poor fit] | –
29 | CC(C)Cc1cc(C(=O)Nc2cc(C(F)(F)F)ccc2Cl)no1 | inconclusive [inhibitor, single point] | –
30 | CCC1(C(=O)c2ccc(Cl)cc2)C2c3ccccc3OC(=O)C21C(=O)Nc1ccccc1 (stereo not drawn) | inconclusive [inhibitor, single point] | –
31 | Cc1ccc(S(=O)(=O)N2CCC(C(=O)Nc3ccncc3)CC2)cc1 | inconclusive [inhibitor, full curve] | –
32 | CCN(Cc1ccc(OC)c(F)c1)C(=O)c1oc2ccccc2c1COC | inconclusive [inhibitor, single point] | –
33 | Cc1ccc(S(=O)(=O)N(C)Cc2ccccc2)cc1C(=O)N1CCCCC1 | inconclusive [inhibitor, partial curve, poor fit] | –
34 | COc1ccc(OC)c(C2CC(=O)N3CN(c4ccccc4)CSC3=C2C#N)c1 (stereo not drawn) | – | inactive: -2.99%
35 | CCN1CCN(CCCN(Cc2cccs2)C(=S)Nc2ccccc2C)CC1 | inconclusive [inhibitor, single point] | –
36 | COc1ccc(NC(=O)N/C=C/c2ccco2)cc1 | – | inactive: 12.5%
37 | CC(C)CSc1nc(N2CCOCC2)c2c(c1C#N)CC(C)(C)SC2 | inconclusive [inhibitor, single point] | –
38 | CN1CCN(c2ccc(C(F)(F)F)cc2NC(=O)c2ccco2)CC1 | inconclusive [inhibitor, single point] | –
39 | CCN(C(=O)c1cc2c(s1)-c1ccccc1OC2)c1cc(OC)ccc1OC | inconclusive [inhibitor, single point] | –
40 | CCOC(=O)C1=C(c2ccccc2)c2ccccc2N(S(=O)(=O)C(F)(F)F)C1C(=O)OCC (stereo not drawn) | inconclusive [inhibitor, single point] | –
41 | O=C(C[C@H]1C[C@H](C(=O)N2CCCCC2)[C@@]2(CCc3ccccc3)c3[nH]c4cc(-c5ccco5)ccc4c3CCN2C1=O)NCCN1CCOCC1 | inconclusive [inhibitor, single point] | –
42 | COc1ccccc1CNC(=O)c1cc2cccc3c2n1CCS3 | inconclusive [inhibitor, single point] | –

Row | Compound | Potency | activity change, negative = inhibition
43 | O=C(CC(c1ccccc1)c1ccco1)N1CCOCC1 (stereo not drawn) | inconclusive [inhibitor, single point] | –
44 | Cc1cc(N2CCCC2)nc2ccc(NC(=S)NCCCN3CCC(C)CC3)cc12 | active: 5.01 µM | –
45 | CCN(c1cccc(C)c1)S(=O)(=O)c1cc2c3c(c1)CCC(=O)N3CCC2 | inconclusive [inhibitor, single point] | –
46 | O=C(CCSc1ccc(Cl)cc1)N1CCCCCC1 | inconclusive [inhibitor, single point] | –
47 | C=CCNC(=S)Nc1sc2c(c1C(=O)OCC)CCN(C(=O)OCC)C2 | – | inactive: 5.35%
48 | COc1ccccc1C(=O)Nc1ccc(N2CCN(Cc3ccccc3)CC2)cc1 | active: 11.2 µM | –
49 | COc1ccc(Cl)cc1NC(=O)C1COc2ccccc2O1 (stereo not drawn) | inconclusive [inhibitor, partial curve, poor fit] | –
50 | Oc1ccc(/C=N/NC(=S)NCCN2CCOCC2)c(O)c1 | – | inactive: 22.9%
51 | CC(C)C(=O)N1CCN(c2ccccc2NC(=O)Cc2ccc(Cl)cc2)CC1 | inconclusive [inhibitor, single point] | –
52 | CC1(C)CC(=O)C=C(c2ccc(-c3ccc(OC(F)(F)F)cc3)cc2)C1=O | inconclusive [inhibitor, partial curve, poor fit] | –
53 | CC(C)c1ccc(N(CC(=O)NCc2ccc(F)cc2)C(=O)c2snc(C(N)=O)c2N)cc1 | inconclusive [inhibitor, partial curve, poor fit] | –
54 | CCOC(=O)Cc1cc(=O)n2[nH]c(C)c(-c3ccc(Cl)cc3)c2n1 | inconclusive [inhibitor, single point] | –
55 | O=C(Nc1cc(Cl)ccc1O)c1cc(-c2ccc3c(c2)OCO3)on1 | – | inactive: 49%
56 | Oc1ccccc1-c1nc2c3ccccc3c3ccccc3c2[nH]1 | inconclusive [inhibitor, partial curve, poor fit] | –
57 | CCOC(=O)c1c(C)[nH]c(CCC(=O)NCc2cc(Br)ccc2OC)c1C | – | inactive: -19.9%
58 | Cc1ccc(S(=O)(=O)N(C)Cc2ccc(C(=O)N/N=C/c3ccc(OC(F)F)cc3OC(F)F)cc2)cc1 | inconclusive [inhibitor, full curve, poor fit] | –
59 | Cc1ccccc1-n1c(=O)c2ccccc2n2cnnc12 | – | inactive: 0%
60 | Cc1cc(Cl)ccc1NC(=O)CCS(=O)(=O)c1ccc2c(c1)CC(C)N2C(=O)C1CC1 (stereo not drawn) | – | inactive: -1.51%
61 | COc1ccc(-c2nc(CN3CCC(C(=O)NC4CCN(Cc5ccccc5)CC4)CC3)c(C)o2)cc1OC | inconclusive [inhibitor, partial curve, poor fit] | –
62 | Cc1ccc(C)c(N(CC(=O)Nc2ccccc2C(=O)NCc2ccco2)S(=O)(=O)c2ccccc2)c1 | inconclusive [inhibitor, partial curve, poor fit] | –
63 | CCc1ccc(C(C(=O)NC(C)(C)CC)N(Cc2ccco2)C(=O)Cn2nnc3ccccc32)cc1 (stereo not drawn) | inconclusive [inhibitor, partial curve, poor fit] | –
